The labels stand for the following.
B1: Caulobacter ParB omega fusion; a variant is named by its letters at X, in order, B8GW30 (parent)
chain: MESVVVGEPGMSEGRRGLGRGLSALLGEVDAAPAQAPGEQLGGSREAPIEILQRNPDQPRRTFREEDLEDLSNSIREKGVLQPILVRPSPDTAGEYQIVAGERAWRAAQRAGLKTVPIMVRELDDLAVLEIGIIENVQRADLNVLEEALSYKVLMEKFERTQENIAQTIGKSXSHVANXMRLLXLPDEVQSYLVSGELTAXHARAIAAAADPVALAKQIIEGGLSVRETEALARKAPNLSAGKSKGGRPPRVKDTDTQALESDLSSVLGLDVSIDHRGSTGTLTITYATLEQLDDLCNRLTRGI

The full ranking holds about 81,000 sequences; the median of “one-hybrid fitness for binding NBS DNA” is about -0.1, and the highest 2% start at about 0.36. Some of the results follow.

In the assay the parent is B1. Description: one-hybrid fitness for binding NBS DNA (the Noc-binding site; scaled: cognate 1, non-cognate 0); higher = stronger binding. Conditions: with NBS DNA site. In short, it runs like this:
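On M9-minus-histidine containing 0.1 mM IPTG and 5 mM 3-AT, E. coli USO cells with a HIS3 reporter, site 19 bp from the promoter, grew 48 hours at 37°C to select Caulobacter ParB libraries randomised at four specificity codons. Plasmids from before and after were Illumina-sequenced, with three replicate libraries pooled and variants under 10 reads left out. Fitness is the log change in variant-to-wild-type read ratio, rescaled against cognate and non-cognate.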
SLRA: the “one-hybrid fitness for binding NBS DNA” value was at most 0.2.
To ADDG belongs at most 0.2.
The value for AEKG was at most 0.2; that for EYPT was at most 0.2; that for TQRC was at most 0.2.
To SRMG belongs at most 0.2; to WAWW, at most 0.2.
As to QFPR, the “one-hybrid fitness for binding NBS DNA” value is at most 0.2.
The value for SILW was at most 0.2.
AHGV: the “one-hybrid fitness for binding NBS DNA” value is at most 0.2.
The value for TFNK was at most 0.2; that for YIPL was at most 0.2; that for KIAR was at most 0.2.
The value for QVTN was at most 0.2; that for WVMT was at most 0.2.
For the variant RMFD, the “one-hybrid fitness for binding NBS DNA” value is at most 0.2.
The value for GKME was at most 0.2; that for GCRA was at most 0.2.
Turning to HHRA, the “one-hybrid fitness for binding NBS DNA” value was at most 0.2.
The value for QKVT was 0.44; that for CHAV was at most 0.2; that for LKSL was at most 0.2.
The value for SKPT was at most 0.2.
As for VHIL, the “one-hybrid fitness for binding NBS DNA” value was at most 0.2.
The value for HEPS was at most 0.2.
With HTVR, the “one-hybrid fitness for binding NBS DNA” value is at most 0.2.
The value for HSSS was at most 0.2; that for ERCT was at most 0.2.
To TYKH belongs at most 0.2; to VVGC, at most 0.2; to PWRF, at most 0.2.
The value for NCHI was at most 0.2; that for AEHC was at most 0.2; that for TTEA was at most 0.2.
Consider KVCR, for which the “one-hybrid fitness for binding NBS DNA” value is at most 0.2.
Consider CRQF, for which the “one-hybrid fitness for binding NBS DNA” value is at most 0.2.
To NHNG belongs at most 0.2.
To ASRN belongs at most 0.2; to LSKH, at most 0.2.
The value for GWNG was at most 0.2; that for KRQM was at most 0.2.
With YEGS, the “one-hybrid fitness for binding NBS DNA” value is at most 0.2.
To TTQS belongs at most 0.2; to DETC, at most 0.2.
Regarding QYDY, the “one-hybrid fitness for binding NBS DNA” value was at most 0.2.
The value for LPQD was at most 0.2.
To RRCT belongs 0.77; to SNSC, at most 0.2; to MFPG, at most 0.2.
To LKMC belongs at most 0.2; to RADH, at most 0.2.
Take SIPY: the “one-hybrid fitness for binding NBS DNA” value is at most 0.2.
The value for TVAV was at most 0.2.
The value for SNYL was at most 0.2; that for LTQG was at most 0.2; that for TVPL was at most 0.2.
Regarding RWGA, the “one-hybrid fitness for binding NBS DNA” value was at most 0.2.
To PDKA belongs at most 0.2; to RIGM, at most 0.2.
The value for RHSM was at most 0.2; that for PGIR was at most 0.2; that for CKTW was at most 0.2.
To MMTI belongs at most 0.2; to EYMV, at most 0.2.
Regarding CNTA, the “one-hybrid fitness for binding NBS DNA” value is at most 0.2.
As for RYTC, the “one-hybrid fitness for binding NBS DNA” value was at most 0.2.
To YGPM belongs at most 0.2.
To TKHK belongs at most 0.2; to QHDR, 0.336; to VGWL, at most 0.2.
To RNSP belongs at most 0.2; to TCHC, at most 0.2.
Regarding YRKQ, the “one-hybrid fitness for binding NBS DNA” value is at most 0.2.
As for WTKT, the “one-hybrid fitness for binding NBS DNA” value was at most 0.2.
To GLLK belongs at most 0.2.
To QPLG belongs at most 0.2.
The value for QSPQ was at most 0.2.

These data come from a collection of fitness landscapes (doi:10.1016/j.celrep.2020.107928).
